Assay results taken from PubChem BioAssay AID504845 (National Center for Advancing Translational Sciences (NCATS), 2011).
The whole screen tested about 390,000 compounds, of which about 150 (0.038%) were called active. Inconclusive results, whose numbers are uncertain, are shown with a selection of clear calls. Calls follow the shape of the dose curve; as a rule, active = well fitted inhibition curve with a large enough effect; inconclusive = small, poorly fitted or top-dose-only effect; inactive = no such curve, though single readings can be large or run the other way. Where the call is inconclusive, the potency comes from a doubtful curve fit.
% is scaled to controls: 0 for no effect and ±100 for the full control effect; potency is read from the fitted curve at half-maximal effect; tags tell the direction and shape of the fitted curve.
Also: nearly all actives have a fitted effect of over 75% in size.

The compounds below were run against Regulator of G-protein signaling 4 (Homo sapiens) (UniProt P49798) (assay: Inhibitors of Regulator of G Protein Signaling (RGS) 4: qHTS). Details: Transcreener GDP fluorescence polarization, RGS4-accelerated GTP hydrolysis; series mostly up to 114 µM.
Sequence of UniProt P49798 (P49798 whole entry, looked up): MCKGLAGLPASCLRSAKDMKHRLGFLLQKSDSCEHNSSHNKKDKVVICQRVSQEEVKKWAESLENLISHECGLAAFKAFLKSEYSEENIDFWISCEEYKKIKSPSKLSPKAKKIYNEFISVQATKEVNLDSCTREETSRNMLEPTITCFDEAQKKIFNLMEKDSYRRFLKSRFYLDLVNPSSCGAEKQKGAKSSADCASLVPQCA
How it was run: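 MLSMR compounds (23 nl, pin-transferred) preincubated 10 min at room temperature with a 500nM (2x) first reagent, then RGS4 at 900nM (2x) plus Transcreener GDP mix added; fluorescence polarization (620/688 nm) read before and after 90 min at 30 °C.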
CCN(CC)C(=O)c1cc(Cl)ccn1 was tested, and the Potency was inconclusive: 100 µM [inhibitor, partial curve, poor fit].
In the case of COc1ccc(C(=O)CCN2CCc3cc(OC)c(OC)cc3C2)cc1, the Potency is reported as inconclusive: 56.2 µM [inhibitor, partial curve, poor fit].
For CC(C)n1c(=S)[nH]c2ccccc21, the Potency was inconclusive: 89.1 µM [inhibitor, partial curve, poor fit].
With CCOc1ccc(CNC(=O)C2CCN(c3nnc(C)c4c(C)n(-c5ccc(C)cc5)nc34)CC2)cc1 the Potency was inconclusive: 50.1 µM [inhibitor, partial curve, poor fit].
For CC(C)(C)OC(=O)N/N=C/c1ccc(C(=O)O)cc1, the Potency was inconclusive: 89.1 µM [inhibitor, single point].
With CCOCC(=O)Nc1nc2ccc(OCC)cc2s1 the Potency was “inactive”.
Cc1[nH]n(-c2ccccc2)c(=O)c1-c1ccc(Cl)cc1 was tested, and the Potency was inconclusive: 79.4 µM [inhibitor, partial curve, poor fit].
For Cc1c(C(=O)N(C)c2cccc(C(F)(F)F)c2)sc2nc3n(c(=O)c12)CCCCC3, the Potency was “inactive”.
In the case of NS(=O)(=O)Nc1c(Br)cc(Br)c2cccnc12, the Potency is reported as inconclusive: 79.4 µM [inhibitor, partial curve, poor fit].
For Cc1ccc(C)c(/C=C/C(=O)c2ccccc(=O)c2O)c1, the Potency was inconclusive: 17.8 µM [inhibitor, full curve, poor fit].
For C=CCc1cccc2cc(C(=O)OCC(=O)c3ccccc3)c(=O)oc12, the Potency was inconclusive: 70.8 µM [inhibitor, single point].
With CCOC(=O)C1=C(C)NC(=O)NC1c1ccc(OC)c(Cl)c1 (stereo not drawn) the Potency was “inactive”.
In the case of CCN(CC)CCCNC(=O)c1ccc2nc(CCc3ccccc3)oc2c1, the Potency is reported as “inactive”.
Fc1ccccc1-n1[nH]nnc1=S was tested, and the Potency was inconclusive: 79.4 µM [inhibitor, partial curve, poor fit].
In the case of COc1ccc([N+](=O)[O-])cc1NC(=O)CSc1nc(C)cc(C)n1, the Potency is reported as inconclusive: 50.1 µM [inhibitor, partial curve, poor fit].
For O=C(COc1cccnc1[N+](=O)[O-])Nc1cccc(Br)c1, the Potency was “inactive”.
For Cc1nnc(SCC(=O)NCc2ccccc2F)c2nn(-c3ccc(Cl)cc3)c(C)c12, the Potency was inconclusive: 50.1 µM [inhibitor, partial curve, poor fit].
O=C1C=CC(=O)N1c1ccc(N2CCCCC2)cc1 was tested, and the Potency was inconclusive: 35.5 µM [inhibitor, partial curve, poor fit].
In the case of CC1(c2ccccc2)CC(C)(C)N2C(=O)C3(C(C#N)=C(N)Oc4cc(O)ccc43)c3cccc1c32 (stereo not drawn), the Potency is reported as “inactive”.
With Cc1ccc(-c2c(C(=O)NCCc3ccc(Cl)cc3)oc(=O)c3ccccc23)cc1 the Potency was “inactive”.
With CC(C)c1ccc(/C=N/Nc2ccc(C(=O)O)cc2)cc1 the activity change, negative = inhibition was inactive: -11.1% [at 11.4 µM].
In the case of O=c1nc2s/c(=C\c3ccco3)c(=O)n2nc1Cc1ccccc1, the Potency is reported as inconclusive: 28.2 µM [inhibitor, full curve, poor fit].
With CCOC(=O)c1sc2nc(C)nc(NCc3ccc(Cl)cc3)c2c1C the Potency was inconclusive: 56.2 µM [inhibitor, partial curve, poor fit].
With CN(C)c1nc(N)c2ncc(=S)[nH]c2n1 the Potency was inconclusive: 89.1 µM [inhibitor, partial curve, poor fit].
For CCS(=O)(=O)N1CC(=O)N(c2cccc(C)c2C)C(C)(C(=O)NC2CCCCC2)C1 (stereo not drawn), the Potency was “inactive”.
In the case of Cc1ccc(-c2c3c(=O)n(C)c(=O)n(C)c3c3c(C(F)(F)F)nc4ccccc4n23)cc1, the Potency is reported as “inactive”.
In the case of Cc1ccc(S(=O)(=O)N/N=C/c2cc([N+](=O)[O-])ccc2O)cc1[N+](=O)[O-], the Potency is reported as inconclusive: 79.4 µM [inhibitor, partial curve, poor fit].
In the case of CCN1CCN(c2cc(C)c3cc(NC(=S)NCCN(C)C)ccc3n2)CC1, the Potency is reported as “inactive”.
O=C1Nc2ccc(S(=O)(=O)N(CCO)CCO)c3cccc1c23 was tested, and the Potency was inconclusive: 79.4 µM [inhibitor, partial curve, poor fit].
With Cc1cc(O)cc2c1C(=O)/C(=C/c1ccco1)O2 the Potency was inconclusive: 89.1 µM [inhibitor, single point].
O=C1NCC(O)=C1C=NC12CC3CC(CC(C3)C1)C2 was tested, and the Potency was “inactive”.
In the case of CCCN1C(=O)S/C(=C/c2ccc(N3CCOCC3)o2)C1=O, the Potency is reported as inconclusive: 50.1 µM [inhibitor, partial curve, poor fit].
With O=C(NNS(=O)(=O)c1ccc2ccccc2c1)c1cccs1 the Potency was inconclusive: 17.8 µM [inhibitor, full curve, poor fit].
In the case of Cc1nc(-c2ccc(F)cc2)sc1CCNC(=O)c1ccco1, the Potency is reported as inconclusive: 100 µM [inhibitor, single point].
For COc1cc(NC(=O)c2ccc3c(c2)OCO3)c2ncccc2c1, the Potency was inconclusive: 17.8 µM [inhibitor, full curve, poor fit].
CCCN1C(=O)/C(=C/C=C2\N(CC)c3ccccc3C2(C)C)SC1=S was tested, and the Potency was “inactive”.
O=C(C[n+]1cccc2ccccc21)c1ccc([N+](=O)[O-])cc1 was tested, and the Potency was inconclusive: 17.8 µM [inhibitor, full curve, poor fit].
For COc1cc(OC)c(-c2c3cc(O)c(=O)cc-3oc3cc(O)c(O)cc23)cc1OC, the Potency was inconclusive: 79.4 µM [inhibitor, partial curve, poor fit].
In the case of COc1ccc(-n2c(SCC#N)nc3c(sc(=S)n3-c3ccccc3)c2=O)c(OC)c1, the Potency is reported as inconclusive: 79.4 µM [inhibitor, partial curve, poor fit].
For Nc1cccc(-c2cc3ccccc3oc2=O)c1, the Potency was inconclusive: 44.7 µM [inhibitor, partial curve, poor fit].
Cc1ccc(OCc2nnc(SCC(=O)C(C)(C)C)n2Cc2ccco2)cc1 was tested, and the Potency was inconclusive: 89.1 µM [inhibitor, single point].
CCc1nc2ccccc2c(C(=O)OCC(=O)NCc2ccc3c(c2)OCO3)c1C was tested, and the Potency was “inactive”.
O=C1C(=Cc2ccc(Br)o2)C(=O)c2ccccc21 was tested, and the Potency was inconclusive: 70.8 µM [inhibitor, partial curve, poor fit].
